Results from PubChem BioAssay AID1956 (SRMLSC, 2009).
In all, about 220,000 compounds went through this assay and about 10 (0.005%) were called active. This list was built around the results that the source calls inconclusive (neither active nor inactive); the mix of calls is not that of the screen. No stated cut-off is given here; in the data, active means maximum fold increase above about 1.5; inconclusive means no clear call, values can overlap the other calls; inactive means below that; tested in PC3 cells.

assay: compounds boosting herpes simplex virus growth – fold increase, host cell viability (AID 1956); conditions: HSV replication augmentation in cells; at 25 µM, hits give high values unless noted

| Structure (SMILES) | maximum fold increase |
| --- | --- |
| COc1cccc(NC2=Nc3cccc4cccc2c34)c1 | inconclusive |
| COc1cc(C=C(c2nc3ccccc3s2)c2nc3ccccc3s2)cc(OC)c1O | inconclusive |
| COc1cc(-c2cc(=O)c3c(O)cc(O)cc3o2)ccc1O | inconclusive |
| N#Cc1c(CSCC(=O)O)cc(=O)n2c1[nH]c1ccccc12 | inconclusive |
| O=[N+]([O-])c1ccc(N2N=C(c3ccco3)CC2c2ccccc2)cc1 (stereo unspecified) | inconclusive |
| Cc1ccc(C)c2[nH]c(=O)c(CN(Cc3nnnn3C3CCCCC3)CC3CCCO3)cc12 (stereo unspecified) | inactive |
| O=C(O)c1ccc(NC2=C(Cl)C(=O)c3ccccc3C2=O)cc1 | inactive |
| COc1ccc(N=C(C)c2sc3ccccc3c2O)cc1 | inconclusive |
| CCCCCn1nc(-c2ccccc2)c2nc3ccccc3nc21 | inconclusive |
| Cc1ccc(CNC(=O)c2ccc3c(c2)S(=O)(=O)c2ccccc2C3=O)cc1 | inactive |
| Cc1ccc(-c2nnn(CC(=O)N(Cc3cccs3)C(C(=O)NC3CCCCC3)c3ccco3)n2)o1 (stereo unspecified) | inconclusive |
| CCOc1ccc(NC(=O)CSc2nc3ccccc3c(=O)n2CCCC(=O)N2CCCC2)cc1 | inactive |
| O=C(CN1CCCc2ccccc21)NCc1ccccc1Cl | inconclusive |
| Clc1cccc(NCc2ccccc2)n1 | inactive |
| Nc1nc2c(ncn2CCC(CO)CO)c(=O)[nH]1 | inactive |
| COc1ccc(C(=O)NCc2c(CC(C)C)oc(C)c2C(=O)O)cc1 | inactive |
| C/C=C(/C)C(=O)O[C@@H]1[C@H](OC(C)=O)c2c(ccc3ccc(=O)oc23)OC1(C)C | inactive |
| N#Cc1c(N)n(-c2cccc(C(=O)O)c2)c2nc3ccccc3nc12 | inconclusive |
| CC(C)n1cnc2c(N(C)c3ccccc3)nc(N(CCN(C)C)Cc3ccccc3)nc21 | inactive |
| CCOc1cc(C2C(C(=O)c3ccc(C)cc3)=C(C(=O)OC)Nc3nnnn32)ccc1O (stereo unspecified) | active: 2.11 |
| Cc1nonc1CN(C)C(=O)CC1C(=O)NCCN1Cc1c(F)cccc1Cl (stereo unspecified) | inconclusive |
| CC(=O)c1sc(N/N=C\c2ccc(C)cc2)nc1C | inconclusive |

| Structure (SMILES) | maximum fold increase |
| --- | --- |
| CC(=O)c1sc(-c2ccccc2)cc1NS(=O)(=O)c1ccc(C)cc1 | inactive |
| COc1cccc(-c2csc(N3CCN(C(=O)Nc4ccc(Cl)cc4)CC3)n2)c1 | inactive |
| Cc1ccsc1C1C=C(c2cccc(Br)c2)Nc2ncnn21 (stereo unspecified) | inconclusive |
| Cc1ccc(N2C(=O)c3cccc4c(Oc5ccccc5[N+](=O)[O-])ccc(c34)C2=O)c(C)c1 | inconclusive |
| Cc1csc(NC(=O)CSc2nnc(-c3ccccn3)n2-c2ccc(C)c(C)c2)n1 | inconclusive |
| O=C1CNC(=S)N1Cc1ccccc1 | inactive |
| CCOC(=O)c1c(C)nc2c(c1-c1ccc(Cl)cc1)C(=O)CC(C)(C)C2 | inactive |
| CC(Nc1ccc2c(c1)OCCO2)C(=O)N1c2ccccc2CC1C (stereo unspecified) | inactive |
| Cc1ccc(C(C[N+](=O)[O-])c2c(-c3ccccc3O)[nH][nH]c2=O)cc1 (stereo unspecified) | inactive |
| CCOC(=O)C1=C(C)NC(=S)NC1c1ccc(-c2ccc(Cl)cc2)o1 (stereo unspecified) | inactive |
| CCOC(=O)CN1C(=O)S/C(=C/C=C/c2ccc(N(C)C)cc2)C1=O | inconclusive |
| NC(=O)CC1Nc2cccc3cccc(c23)NC1=O (stereo unspecified) | inconclusive |
| O=C1NC(=Nc2ccccc2)SC1Cc1ccccc1 (stereo unspecified) | inactive |
| COc1ccc(C2C(C(C)=O)=C(C)N=c3s/c(=C\c4cc(C)n(C)c4C)c(=O)n32)c(OC)c1 (stereo unspecified) | inconclusive |
| O=C(Nc1ccc(F)cc1)OCCN1CCN(Cc2ccccc2)CCC1=O | inconclusive |
| CCOC(=O)c1c(NC(=S)Nc2ccc(Cl)cc2)sc2c1CCN(C)C2 | inconclusive |
| COC(=O)c1[nH]c2cc(OC)ccc2c1NC(=O)CN1CCC(C(N)=O)(N2CCCCC2)CC1 | inactive |
| O=C(NC(=S)Nc1ccccc1N1CCCCC1)c1ccco1 | inconclusive |
| CCC(=O)Nc1ccc(NC(=O)CSc2nnc(C(C)C)n2C)cc1 | inconclusive |
| CN1CCc2c(sc3nc(SCC(N)=O)n(-c4ccccc4)c(=O)c23)C1 | inconclusive |
| O=C1/C(=C/c2cccs2)Sc2ccccc21 | inconclusive |
| O=C1/C(=C/c2ccc(O)cc2)SC(=S)N1CC1CCCO1 (stereo unspecified) | inconclusive |

| Structure (SMILES) | maximum fold increase |
| --- | --- |
| O=C1C(Cl)=C(Nc2ccc3cn[nH]c3c2)C(=O)c2ccccc21 | inactive |
| CCS(=O)(=O)N1N=C(c2cccc(NS(C)(=O)=O)c2)CC1c1ccccc1 (stereo unspecified) | inconclusive |
| CC1CCCCN1CC(=O)Nc1ccc(Oc2ccccc2)cc1 (stereo unspecified) | inactive |
| COC(=O)c1c(Cl)c2n3ccccc3c(C)c(-c3ccccc3)c-2c1C(=O)OC | inconclusive |
| N#C/C(=C\c1ccc(-c2cccc(Cl)c2)o1)C(=O)Nc1cccc2cccnc12 | inconclusive |
| CCCNc1cc(C)oc(=O)c1C(=O)CCC | inactive |
| Cc1ccc[n+](-c2nc([O-])sc2C=O)c1 | inconclusive |
| Cc1ccc(S(=O)(=O)NNC(=S)NC(C)(C)C)cc1 | inconclusive |
| COc1cc(CC(=O)Nc2ccc3nc(C)sc3c2)cc(OC)c1OC | inactive |
| C=CCSc1nc(N)c(C(=O)Nc2ccccc2OC)cc1C(=O)Nc1ccccc1 | inconclusive |
| OCCCc1nc2n(n1)C(c1ccccc1Cl)C=C(c1cccs1)N2 (stereo unspecified) | inconclusive |
| CCN(CC)c1ccc2cc(NC(=O)CCC(=O)O)c(=O)oc2c1 | inconclusive |
| CNC(=O)/C(C#N)=C/c1ccc(-c2nc3ccccc3s2)o1 | inconclusive |
| CCNC(=O)COC(=O)c1cc(-c2ccco2)nc2ccccc12 | inconclusive |
| CCOC(=O)N1CCc2c(sc(NC(=O)CN(CC)CC)c2C#N)C1 | inconclusive |
| N#Cc1cc2ccccc2nc1SCc1ccccn1 | inconclusive |
| CCOc1cc([N+](=O)[O-])cc2c1C(=O)Nc1ccccc1O2 | inconclusive |
| Nc1c(C(=O)N/N=C/c2ccccc2Cl)oc2nc(-c3ccccc3)cc(-c3ccco3)c12 | inconclusive |
| N#C/C(=C\c1cn[nH]c1-c1ccc(Cl)cc1)C(=O)NC1CC1 | inactive |
| CC(C)(C)C(=O)Oc1ccc2cc(-c3ccc4ccccc4n3)c(=O)oc2c1 | inconclusive |
| CCOC(=O)c1sc(S(C)=O)c2c1CCc1conc1-2 (stereo unspecified) | inconclusive |
| Cc1c(C)c2ccc(OCc3ccc(C(=O)O)o3)c(C)c2oc1=O | inactive |
